Source: PubChem BioAssay AID1460 (National Center for Advancing Translational Sciences (NCATS), 2008)
Screen size: about 270,000 compounds; about 5,800 (2.1%) were called active. Inconclusive means that the source gave no clear call. Such entries were picked first, then a sample of the others. Calls come from the whole dose curve; as a rule, active = well fitted inhibition curve with a large enough effect; inconclusive = small, poorly fitted or top-dose-only effect; inactive = flat fitted curve, though single readings scatter. A potency beside an inconclusive call is a rough fit, not a confirmed value.

Biological target: Microtubule-associated protein tau (Homo sapiens) (UniProt P10636)
Experiment: qHTS for Inhibitors of Tau Fibril Formation, Thioflavin T Binding; note: nearly all actives have a fitted effect of over 55% in size
Conditions: recombinant tau K18 P301L (four-repeat tau fragment), heparin-induced fibrillization, ThT fluorescence; series mostly up to 57.4 µM; activity, negative = inhibition: at the top concentration
In short: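 K18 P301L tau (15 uM + 0.24 uM Alexa 594-tagged), heparin 20 uM, NaOAc pH 7, 6 h 37 C; ThT 30 uM, 1 h RT, ex 450/em 510 nm.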
% is set by controls: 0 for no effect and ±100 for the full control effect; potency is the fitted concentration of half-maximal effect; tags give direction and shape of the fitted curve.

Sequence of UniProt P10636 (P10636 whole entry, looked up): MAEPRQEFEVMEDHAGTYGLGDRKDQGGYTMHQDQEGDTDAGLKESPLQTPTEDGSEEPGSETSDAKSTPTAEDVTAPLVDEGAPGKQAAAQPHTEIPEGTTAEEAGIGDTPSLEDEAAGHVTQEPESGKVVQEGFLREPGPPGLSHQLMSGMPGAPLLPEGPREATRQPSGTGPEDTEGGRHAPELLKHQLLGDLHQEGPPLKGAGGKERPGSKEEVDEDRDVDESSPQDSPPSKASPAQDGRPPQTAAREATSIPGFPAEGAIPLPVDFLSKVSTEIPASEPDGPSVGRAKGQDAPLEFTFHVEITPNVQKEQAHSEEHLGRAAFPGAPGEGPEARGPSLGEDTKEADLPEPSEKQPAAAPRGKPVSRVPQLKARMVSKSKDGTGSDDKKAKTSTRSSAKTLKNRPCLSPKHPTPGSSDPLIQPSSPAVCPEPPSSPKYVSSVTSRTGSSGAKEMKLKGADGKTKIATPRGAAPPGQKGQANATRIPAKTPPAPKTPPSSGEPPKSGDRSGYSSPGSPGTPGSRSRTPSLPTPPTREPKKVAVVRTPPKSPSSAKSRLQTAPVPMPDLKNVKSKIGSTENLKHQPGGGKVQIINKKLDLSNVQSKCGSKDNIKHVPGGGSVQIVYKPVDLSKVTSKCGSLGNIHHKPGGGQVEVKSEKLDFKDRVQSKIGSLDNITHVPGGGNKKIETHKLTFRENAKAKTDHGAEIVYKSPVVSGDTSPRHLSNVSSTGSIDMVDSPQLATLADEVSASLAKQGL

SMILES | Potency | activity, negative = inhibition
CC(=O)c1cc(C#N)c(SCc2ccncc2)nc1C | inconclusive: 12.6 µM [inhibitor, partial curve] | 
CCCCN1C(=O)C(NC(C)=O)c2ccccc21 (stereo not drawn) |  | inactive: -5.89%
Cc1ccc(C)c(NC(=O)C(Cc2ccccc2)N2Cc3ccccc3C2=O)c1 (stereo not drawn) |  | inactive: -12.6%
CN(C)c1ccc(/C=C2/NC(=O)NC2=O)cc1 | inconclusive: 15.8 µM [inhibitor, partial curve] | 
Cc1ccc(CCNc2ncnc3onc(C)c23)cc1 |  | inactive: 1.15%
CSc1cccc(Nc2cc(C(=O)NCCCN(Cc3ccccc3)C(C)C)c3ccccc3n2)c1 | inconclusive: 28.2 µM [inhibitor, partial curve] | 
Cc1c(C(=O)OC/C(O)=C(\C#N)c2nc3ccccc3[nH]2)oc2ccccc12 |  | inactive: -8.24%
Clc1ccc(NNc2ccnc3cc(Cl)ccc23)cc1 | active: 3.16 µM | 
CCOc1ccc2nc3sc(C(=O)N4CCOCC4)c(N)c3cc2c1 | active: 7.08 µM | 
COc1ccc2[nH]c(C)cc(=O)c2c1 |  | inactive: 4.68%
CC(NC(=O)c1sc2ncccc2c1-n1cccc1)c1ccccc1 (stereo not drawn) |  | inactive: -3.35%
OCC1(Cc2ccccc2)CCN(Cc2ccc(-c3ccco3)cc2)CC1 | inconclusive: 31.6 µM [inhibitor, single point] | 
COc1ccc(CCN(Cc2cccs2)S(=O)(=O)c2ccc(-n3cnnn3)cc2)cc1OC | inconclusive: 39.8 µM [inhibitor, single point] | 
CCNC(=S)NNC(=O)c1ccncc1 |  | inactive: 2.37%
CCN(CC(=O)Nc1ccc2c(c1)OC(F)(F)O2)Cc1nc2ccccc2c(=O)[nH]1 |  | inactive: -5.06%
CCN1CCN(C(=O)c2ccc(-c3nc4ccccc4s3)s2)CC1 | inconclusive: 14.1 µM [inhibitor, single point] | 
N/C(=N\OC(=O)c1ccc(Br)cc1)c1ccccc1 | inconclusive: 17.8 µM [inhibitor, partial curve] | 
COc1ccc(N2CCN(C(=O)c3ccc4nc(N5CCC(C)CC5)sc4c3)CC2)cc1 | inconclusive: 15.8 µM [inhibitor, partial curve] | 
C/C(=N\NC(=O)COc1ccc(C)cc1C(C)C)c1ccc(-n2ccnc2)cc1 | inconclusive: 4.47 µM [inhibitor, partial curve] | 
COc1cccc(/C=N/NC(=O)c2[nH]nc3c2CCc2ccccc2-3)c1 | inconclusive: 39.8 µM [activator, single point] | 
CCCSC1=C(C#N)C(c2cc(OC)ccc2OC)CC(=O)N1 (stereo not drawn) |  | inactive: -3.78%
COc1ccc2nc(N3CCN(C(=O)C4CC4)CC3)sc2c1 | inconclusive: 0.398 µM [inhibitor, full curve] | 
COc1ccc(NC(=O)N2CCc3c([nH]c4ccc(OC)cc34)C2c2ccc(OC)cc2)cc1 (stereo not drawn) |  | inactive: 0.564%
Cc1cc(=O)oc2cc(OC(=O)c3nn(C(C)C)c(=O)c4ccccc34)ccc12 | inconclusive: 44.7 µM [inhibitor, single point] | 
COc1cccc(OCCN2CCN(c3ncnc4c3cnn4-c3ccccc3)CC2)c1 | inconclusive: 14.1 µM [inhibitor, partial curve] | 

SMILES | Potency | activity, negative = inhibition
CCOC(=O)CC(NC(=O)Cn1nnc(-c2ccc(C(F)(F)F)cc2)n1)c1ccc(C)cc1 (stereo not drawn) |  | inactive: -4.7%
O=C(CSc1nnc(NC2CCCCC2)s1)Nc1ccc2c(c1)C(=O)c1ccccc1C2=O | inconclusive: 8.91 µM [inhibitor, partial curve] | 
CCOc1ccccc1C(=O)NC1CC2CCCC(C1)N2C1CC1 (stereo not drawn) |  | inactive: -4.73%
COc1ccc(NC(=O)c2ccc(-n3cncn3)c([N+](=O)[O-])c2)cc1 | inconclusive: 17.8 µM [inhibitor, single point] | 
COC(=O)[C@@H]1CC[C@H](C)[C@@H](c2ccc(C)cc2)N1C(=O)c1ccc(/C=N/OC[C@@H](O)COCc2ccco2)cc1 | inconclusive: 25.1 µM [inhibitor, partial curve] | 
OCCN1CCN(CC(O)COc2ccc3ccccc3c2)CC1 (stereo not drawn) |  | inactive: -7.59%
O=c1c(Cl)c2oc3ccccc3nc-2c2ccccc12 | inconclusive: 2.82 µM [inhibitor, full curve] | 
COc1ccccc1OCC(=O)Nc1cccc(-c2nnc(-c3ccco3)o2)c1 | inconclusive: 28.2 µM [inhibitor, single point] | 
O=C(O)c1ccccc1SC1CC(=O)N(c2ccccc2)C1=O (stereo not drawn) |  | inactive: -16.2%
O=C(NCC(c1cccnc1)N1CCN(Cc2ccccc2)CC1)C(=O)Nc1cccc(F)c1 (stereo not drawn) | inconclusive: 22.4 µM [inhibitor, partial curve, poor fit] | 
CCOc1ccc(C2C(C#N)=C(N)SC(N)=C2C#N)cc1OCC | inconclusive: 39.8 µM [inhibitor, single point] | 
COc1ccccc1CNC(=O)c1csc(Cc2ccc(Cl)cc2)n1 | inconclusive: 28.2 µM [inhibitor, single point] | 
CCOc1ccc(NC(=O)N(C2CCCCC2)C(C)c2cccnc2)cc1 (stereo not drawn) | inconclusive: 20 µM [inhibitor, single point] | 
CCN(CCO)c1ncnc2c1sc1nc(CC(C)C)c3c(c12)CC(C)(C)OC3 | inconclusive: 10 µM [inhibitor, partial curve] | 
Cc1ccc(C2CC(=O)Oc3ccc(O)cc32)cc1 (stereo not drawn) |  | inactive: -13.5% [at 126 µM]
CN(C)CCCN1C(=O)c2cccc3c([N+](=O)[O-])ccc(c23)C1=O |  | inactive: 7.87%
CC(C)S(=O)(=O)c1nsc2nc(=O)c(/C=C3\C=Nc4ccccc43)c(N)n12 | inconclusive: 17.8 µM [inhibitor, partial curve] | 
O=C(Nc1ccc(-c2nc3ccccc3o2)cc1)c1ccc(N2CCOCC2)c([N+](=O)[O-])c1 | active: 2.82 µM | 
N=c1c(C(=O)NCc2ccc3c(c2)OCO3)cc2c(=O)n3ccccc3nc2n1Cc1cccnc1 | inconclusive: 25.1 µM [inhibitor, partial curve] | 
N/C(=N\OC(=O)c1ccc(Cl)cc1[N+](=O)[O-])c1cccnc1 | inconclusive: 25.1 µM [inhibitor, partial curve] | 
Cc1ccc2nc(N3C(=O)C(O)=C(C(=O)c4cc5ccccc5o4)C3c3cccs3)sc2c1 (stereo not drawn) | inconclusive: 5.01 µM [inhibitor, partial curve] | 
Cc1ccc(NC(=O)C(=O)NCCOc2ccc(Cl)cc2)c(C)c1 |  | inactive: -0.557%
CCOC(=O)c1c(-c2ccc(OC)cc2)csc1NC(=O)C1CCCO1 (stereo not drawn) | inconclusive: 17.8 µM [inhibitor, partial curve] | 
CCn1cc(C=C2C(=O)c3ccccc3C2=O)c2ccccc21 | inconclusive: 10 µM [inhibitor, partial curve] | 
Cc1ccccc1N1CCN(CCCN2C(=O)CC(=C(c3ccccc3)c3ccccc3)C2=O)CC1 | inconclusive: 39.8 µM [inhibitor, single point] | 

SMILES | Potency | activity, negative = inhibition
CN1CCN(/C=N/c2sc3c(c2C#N)CCCCC3)CC1 |  | inactive: -15.5%
COc1ccc2c(c1)C=C([C@@H]1C[C@H]3CN(c4ccccc4)C(=O)[C@]34CCCN14)CO2 | inconclusive: 25.1 µM [inhibitor, partial curve] | 
CCN(CC)S(=O)(=O)c1nnc(NC(=O)COc2cccc(C)c2)s1 | inconclusive: 0.891 µM [inhibitor, full curve] | 
Cc1cccc(NC(=O)CSc2nc3nc(C)cc(C)c3c(=O)[nH]2)c1 | inconclusive: 28.2 µM [inhibitor, single point] | 
COc1ccc(/C=C/C(=O)O/N=C(\N)c2cccnc2)cc1OC | inconclusive: 39.8 µM [inhibitor, single point] | 
COc1ccc(NC(=O)N(Cc2nnc3n2CCCCC3)c2ccc(OC)c(Cl)c2)cc1 |  | inactive: -5.91%
Cc1ccc(-c2nc(N)sc2-c2ccccc2)cc1C | inconclusive: 25.1 µM [inhibitor, single point] | 
CCn1c(COc2c(C)cccc2C)nnc1SCC(=O)N1CCN(c2ccccc2)CC1 | inconclusive: 35.5 µM [inhibitor, partial curve] | 
Cc1cc(SCC(=O)c2cc3ccccc3o2)nc2ccccc12 | inconclusive: 15.8 µM [inhibitor, partial curve] | 
O=C(Cc1ccccc1Cl)NC1(O)C(=O)c2ccccc2C1=O | active: 2.82 µM | 
CCC12CN3CC(C)(CN(C1)C3c1c(C)n(C)c3ccccc13)C2=O (stereo not drawn) |  | inactive: 1.11%
CN1CCN(C(=O)c2sc(=S)n(-c3ccccc3)c2N)CC1 | inconclusive: 35.5 µM [inhibitor, single point] | 
CCN(CC)C(=O)CSc1nnc2nnc3cc(OC)ccc3n12 |  | inactive: -15.2%
C/C(=N/N=C/c1ccc(N(C)C)cc1)c1ccccc1 | active: 8.91 µM | 
Nc1nnc(SCC(=O)OCC(=O)c2ccccc2Br)s1 |  | inactive: -12.6%
CCOC(=O)c1cccnc1SC(CC)C(=O)N1CCOCC1 (stereo not drawn) |  | inactive: -19.2%
Cc1[nH]c2ccccc2c1/C=N/NC(=O)CNC(=O)c1ccccc1 | inconclusive: 12.6 µM [inhibitor, partial curve] | 
Cc1cc(C(=O)NNc2ccc(C)c(C)c2)no1 | inconclusive: 15.8 µM [inhibitor, partial curve, poor fit] | 
CCOc1cccc(-c2nn3c(-c4ccccn4)nnc3s2)c1 | inconclusive: 35.5 µM [inhibitor, single point] | 
Cc1cccc(CNC(=O)c2ccc3nc(-c4ccccc4)c(-c4ccccc4)nc3c2)c1 |  | inactive: 0.961%
COc1ccccc1OC(=O)CCN1c2ccccc2Sc2ccccc21 | inconclusive: 39.8 µM [inhibitor, single point] | 
CN(C)c1ccc(CNC(=O)c2ccc(NC(=O)c3nsc4ccccc34)cc2)cc1 |  | inactive: -3.01%
O=[N+]([O-])c1ccc(/C=N/Nc2nc(-c3ccccc3)c3cc(Br)ccc3n2)o1 | active: 2.82 µM | 
